Data on twelve molecules can be found in the supplement of paper PMC4604168 (melanoma cell lines).

This is one part of the list. Single values are uncertain, as repeats are few or missing.

Some test systems named below: A101D; A2058; A375.
Assay in all cases: cell count relative to DMSO control; melanoma cells; higher = more viable cells
What all share (conditions): library dose: standard library concentration; 72 h
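Also: cells treated in 1,536-well plates, then fixed and DAPI-stained, with nuclei counted from automated high-throughput microscope images.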

For `O=C(/C=C/c1cccnc1)NCCCCC1CCN(C(=O)c2ccccc2)CC1` + Cc1ccc(Nc2nccc(N(C)c3ccc4c(C)n(C)nc4c3)n2)cc1S(N)(=O)=O [Pazopanib] (first compound 0.05 µM, partner dose 2 µM), the cell count in the test with A101D was 69.9%; in the test with A2058, 116%; in the test with A375 it was 106%.
The matching figures for `O=C(/C=C/c1cccnc1)NCCCCC1CCN(C(=O)c2ccccc2)CC1` + NC1(c2ccc(-c3nc4ccn5c(=O)[nH]nc5c4cc3-c3ccccc3)cc2)CCC1 [MK2206] (first compound 0.05 µM, partner dose 2 µM): 77.9%, 72.1% and 118%.
For `CC1(C)CCC(c2ccc(Cl)cc2)=C(CN2CCN(c3ccc(C(=O)NS(=O)(=O)c4ccc(N[C@H](CCN5CCOCC5)CSc5ccccc5)c(S(=O)(=O)C(F)(F)F)c4)cc3)CC2)C1` + OCCn1cc(-c2cnc3nnn(Cc4ccc5ncccc5c4)c3n2)cn1 [PF04217903] (first compound 2 µM, partner dose 5 µM), in that order: 49.9%, 92.3% and 78%.
For `O=C(/C=C/c1cccnc1)NCCCCC1CCN(C(=O)c2ccccc2)CC1` + CO[C@H]1C[C@@H]2CC[C@@H](C)[C@@](O)(O2)C(=O)C(=O)N2CCCC[C@H]2C(=O)O[C@H]([C@H](C)C[C@@H]2CC[C@@H](OCCO)[C@H](OC)C2)CC(=O)[C@H](C)/C=C(\C)[C@@H](O)[C@@H](OC)C(=O)[C@H](C)C[C@H](C)/C=C/C=C/C=C/1C [everolimus] (first compound 0.05 µM, partner dose 0.1 µM), in that order: 82.8%, 77.9% and 92.7%.
`Cc1ccc(Nc2nccc(N(C)c3ccc4c(C)n(C)nc4c3)n2)cc1S(N)(=O)=O` [Pazopanib] + CNC(=O)c1cc(Oc2ccc(NC(=O)Nc3ccc(Cl)c(C(F)(F)F)c3)cc2)ccn1 [sorafenib] (first compound 2 µM, partner dose 2 µM): the cell count was found to be 94.7% in the test with A101D, 100% in the test with A2058 and 121% in the test on A375.
The matching figures for `O=C(/C=C/c1cccnc1)NCCCCC1CCN(C(=O)c2ccccc2)CC1` + Nc1nc(F)nc2c1ncn2[C@@H]1O[C@H](CO)[C@@H](O)[C@@H]1O [fludarabine] (first compound 0.05 µM, partner dose 1 µM): 97.4%, 98.5% and 56.2%.
The matching figures for `O=C(/C=C/c1cccnc1)NCCCCC1CCN(C(=O)c2ccccc2)CC1` + NC(=O)Nc1cc(-c2cccc(F)c2)sc1C(=O)N[C@H]1CCCNC1 [AZD7762] (first compound 0.05 µM, partner dose 0.1 µM): 61.2%, 101% and 48%.
`CC1(C)CCC(c2ccc(Cl)cc2)=C(CN2CCN(c3ccc(C(=O)NS(=O)(=O)c4ccc(N[C@H](CCN5CCOCC5)CSc5ccccc5)c(S(=O)(=O)C(F)(F)F)c4)cc3)CC2)C1` + OCc1c[nH]c2ccccc12 [Indole-3-carbinol] (first compound 2 µM, partner dose 4 µM): the cell count with A101D worked out at 45.1%; in the test with A2058 it was 93.6%; with A375, 85.9%.
The matching figures for `O=C(/C=C/c1cccnc1)NCCCCC1CCN(C(=O)c2ccccc2)CC1` + CC(C)C[C@H](NC(=O)[C@H](Cc1ccccc1)NC(=O)c1cnccn1)B(O)O [Bortezomib] (first compound 0.05 µM, partner dose 0.005 µM): 15.7%, 15.8% and 71.6%.
For `O=C(/C=C/c1cccnc1)NCCCCC1CCN(C(=O)c2ccccc2)CC1` + Cn1cncc1[C@@](N)(c1ccc(Cl)cc1)c1ccc2c(c1)c(-c1cccc(Cl)c1)cc(=O)n2C [tipifarnib] (first compound 0.05 µM, partner dose 0.05 µM), in that order: 66.8%, 83.5% and 76.5%.
The matching figures for `O=C(/C=C/c1cccnc1)NCCCCC1CCN(C(=O)c2ccccc2)CC1` + CN1CCN(c2ccc3nc(-c4c(N)c5c(F)cccc5[nH]c4=O)[nH]c3c2)CC1 [Dovitinib] (first compound 0.05 µM, partner dose 0.5 µM): 51%, 34.6% and 84.4%.
Turning to `CC1(C)CCC(c2ccc(Cl)cc2)=C(CN2CCN(c3ccc(C(=O)NS(=O)(=O)c4ccc(N[C@H](CCN5CCOCC5)CSc5ccccc5)c(S(=O)(=O)C(F)(F)F)c4)cc3)CC2)C1` + Cn1cnc2c(F)c(Nc3ccc(Br)cc3Cl)c(C(=O)NOCCO)cc21 [selumetinib] (first compound 2 µM, partner dose 0.075 µM), the cell count with A101D amounted to 46.6%; with A2058, 101%; in the test on A375, 79.9%.
